# Results as given in the supplement of paper PMC4166925.
# ± gives the standard deviation of the averaged measurements. Whole data set: some 33,000 sequences, median “E-score (dimensionless, -0.5 to 0.5)” near -0.046, cut for the highest 2% near 0.36. Some of the results follow.
# Test system: T1, SpTbr T-box DNA-binding domain (GST fusion)
# T1 sequence: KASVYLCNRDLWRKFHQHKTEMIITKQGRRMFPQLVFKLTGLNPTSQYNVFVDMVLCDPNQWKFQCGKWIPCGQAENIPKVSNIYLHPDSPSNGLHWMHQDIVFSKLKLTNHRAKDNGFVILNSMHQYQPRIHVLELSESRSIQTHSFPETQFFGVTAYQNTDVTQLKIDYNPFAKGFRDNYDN
# Test: PBM E-score of 8-mer (E-score (dimensionless, -0.5 to 0.5)); Tbr is Tbrain of the sea star Patiria miniata (Pm) or the sea urchin Strongylocentrotus purpuratus (Sp); higher = stronger binding preference; most listed sequences are background and not binding sites
# Settings: the construct has about 5 more residues each side
# In short: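 GST-fused Tbr T-box DNA-binding domains (the whole T-box plus about five flanking residues) were expressed in BL21 E. coli at 20 °C and purified by glutathione affinity chromatography. Universal Agilent oligonucleotide arrays were made double-stranded by primer extension, incubated with 200 nM protein in PBS (pH 7.5), then scanned and quantified. Every ungapped 8-mer was scored from probe intensities. The Universal PBM Analysis Suite gave each word an enrichment E-score, averaged over duplicate arrays.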
row,Sequence,PBM E-score of 8-mer
1,CGAGTATA,-0.0211 ± 0.048
2,ACATATGC,-0.0534 ± 0.018
3,ATCAGTAG,-0.176 ± 0.079
4,ATCCGACC,-0.3 ± 0.0094
5,ACTGCGCA,0.0181 ± 0.1
6,AATTACTG,-0.048 ± 0.061
7,ACCCCATC,-0.115 ± 0.019
8,CATGGACC,-0.161 ± 0.073
9,ACAGTTGA,0.2 ± 0.059
10,AGGTAAAG,-0.026 ± 0.018
11,CCCATAAC,-0.138 ± 0.056
12,AGTTTATA,-0.0231 ± 0.091
13,ATGGCGTC,0.0934 ± 0.034
14,AGCTTCCG,-0.148 ± 0.022
15,CCATGTCG,0.189 ± 0.0036
16,CGAATTAA,-0.0504 ± 0.051
17,AAACGTGC,0.232 ± 0.0069
18,ACAAGCCC,-0.233 ± 0.0026
19,CCGGACCA,-0.19 ± 0.036
20,ACTTGCGA,0.388 ± 0.021
21,AAGTATAT,-0.147 ± 0.046
22,TCGCGCGA,0.379 ± 0.0069
23,AGAACTAG,-0.0455 ± 0.017
24,ATTGATCC,-0.00647 ± 0.062
25,TAACGTTA,-0.0796 ± 0.045

row,Sequence,PBM E-score of 8-mer
1,CGAATACC,0.123 ± 0.0052
2,AGATCCAA,-0.1412 ± 0.0004
3,CAAGTGCG,0.395 ± 0.02
4,CGCAGAAG,-0.00467 ± 0.042
5,ATACCGGA,-0.105 ± 0.062
6,AGGCCGGG,-0.205 ± 0.056
7,AGATCTCC,-0.135 ± 0.037
8,GGGTCGAA,0.126 ± 0.016
9,GCCTTGTA,-0.00667 ± 0.04
10,CTATCGCA,0.218 ± 0.0022
11,ATGTGACA,0.409 ± 0.0051
12,CGTAGGTA,-0.321 ± 0.013
13,CCCAATCA,-0.0262 ± 0.04
14,AAACTCAC,0.0177 ± 0.054
15,ACGACTGC,-0.0612 ± 0.017
16,GAGCCACA,0.0812 ± 0.07
17,CGCCAAAG,0.166 ± 0.036
18,ATAGATTG,-0.173 ± 0.027
19,CTGTGCTA,0.0802 ± 0.026
20,TTGCCAAA,0.0607 ± 0.12
21,AACCCTGA,-0.128 ± 0.029
22,TACAAACA,0.11 ± 0.032
23,CATGCCTA,-0.322 ± 0.053
24,CCCTCGCC,-0.0707 ± 0.054
25,ATCGATTG,-0.0013 ± 0.0092

row,Sequence,PBM E-score of 8-mer
1,AACGCCAG,0.0487 ± 0.017
2,GCAAGGGC,-0.278 ± 0.006
3,CCGGCACC,0.28 ± 0.0067
4,CTTATGCC,-0.11 ± 0.018
5,CACGCGCG,0.313 ± 0.059
6,CATCCCGG,-0.301 ± 0.03
7,ACCTGTAG,0.0967 ± 0.048
8,GTGGCAGA,-0.0126 ± 0.032
9,ATGTGCCG,0.175 ± 0.032
10,ACAAGAAG,-0.17 ± 0.019
11,ATAAGAGG,-0.103 ± 0.051
12,GAACATGA,-0.126 ± 0.035
13,CCGCTTAC,-0.0299 ± 0.039
14,CGAAATTA,0.0611 ± 0.085
15,CACGACCA,0.0842 ± 0.067
16,CTACCTGC,-0.023 ± 0.023
17,ATCCGAGA,-0.0813 ± 0.00083
18,AGGTATAG,-0.139 ± 0.015
19,GCGTAGGA,-0.0865 ± 0.046
20,CTGAACAC,-0.0318 ± 0.035
21,AGCCATCC,-0.152 ± 0.081
22,AGCTGGGA,-0.0684 ± 0.039
23,CACAGCCA,0.064 ± 0.088
24,AGGCCGTC,-0.137 ± 0.11
25,GAGTACCC,-0.0313 ± 0.076

row,Sequence,PBM E-score of 8-mer
1,CGCCCAGC,0.137 ± 0.1
2,GCAACGCC,0.208 ± 0.027
3,ATATTAAG,-0.116 ± 0.036
4,AAAACTTT,0.0646 ± 0.092
5,AACGGCCA,0.0429 ± 0.043
6,CACTGGTC,-0.163 ± 0.012
7,AAATGACC,-0.00341 ± 0.037
8,CGGTTACC,-0.126 ± 0.0074
9,GCGTCAAA,0.31 ± 0.029
10,ACACGCGT,0.236 ± 0.0033
11,AGTTGCTC,-0.00079 ± 0.059
12,CGAAACGC,-0.00119 ± 0.03
13,AGTAGCGG,-0.0382 ± 0.078
14,GAATGCCA,-0.0123 ± 0.0072
15,GGCCTAAA,-0.138 ± 0.069
16,ACAGACAG,0.00634 ± 0.093
17,ACCAGTGG,-0.147 ± 0.026
18,ACTGTCGA,0.202 ± 0.031
19,GACGTCGA,-0.113 ± 0.019
20,ATCCTTTC,-0.252 ± 0.012
21,GGCGGGGA,-0.0765 ± 0.031
22,CCGATCTA,-0.191 ± 0.032
23,ACAGTGGT,0.0138 ± 0.052
24,AACAGTGT,0.217 ± 0.024
25,CGCGACAA,0.309 ± 0.0049

row,Sequence,PBM E-score of 8-mer
1,AGCCACAT,-0.123 ± 0.024
2,CCCATTTA,-0.00609 ± 0.031
3,CACAAGCC,-0.00774 ± 0.031
4,CGACGATC,0.0321 ± 0.031
5,ACGTCACT,0.183 ± 0.04
6,CTCACTTC,0.276 ± 0.015
7,GATTTGGC,0.199 ± 0.033
8,AGCATAGA,-0.0143 ± 0.0077
9,ATGCCCGA,-0.0352 ± 0.056
10,TAATATTA,-0.13 ± 0.033
11,CCTCTCGC,0.235 ± 0.031
12,ATCGCAAT,0.141 ± 0.0092
13,CCACATAA,-0.114 ± 0.071
14,CGGCGCAA,-0.107 ± 0.068
15,CGTCAAGA,0.157 ± 0.12
16,TAGACCTA,-0.237 ± 0.024
17,CTTCTTTC,-0.199 ± 0.037
18,GCGCGAGA,0.3663 ± 0.0029
19,GCTTAAGC,-0.305 ± 0.013
20,CTCGGATA,-0.169 ± 0.043
21,ATGGGGTC,-0.16 ± 0.023
22,TGAGGTAA,-0.193 ± 0.013
23,CGTAAACC,-0.0335 ± 0.11
24,CGAGGGCC,-0.127 ± 0.057
25,AAAGGAGG,-0.154 ± 0.071

row,Sequence,PBM E-score of 8-mer
1,CAATAATC,-0.0725 ± 0.12
2,ATGATCAT,-0.147 ± 0.0035
3,GATACACC,0.157 ± 0.088
4,AGGCCGGA,-0.223 ± 0.018
5,ACGAACGT,0.0948 ± 0.012
6,CATAGACG,-0.00924 ± 0.026
7,GAAGTCTC,0.0123 ± 0.037
8,CGGAAACA,-0.0108 ± 0.032
9,ATCCCGAG,-0.121 ± 0.061
10,ATTAGGCC,-0.273 ± 0.07
11,GAGGAATA,-0.238 ± 0.027
12,CATGTTAA,0.0432 ± 0.11
13,GCCGCGAC,0.143 ± 0.035
14,AATCATCG,0.0375 ± 0.043
15,GGGCGACA,0.277 ± 0.0043
16,TAGAATGA,0.0442 ± 0.074
17,ACCAGTCC,-0.1 ± 0.11
18,ACTTTTTG,0.227 ± 0.033
19,GTACTACA,-0.175 ± 0.086
20,AGCTACTA,-0.0235 ± 0.013
21,GACTTATC,-0.0784 ± 0.11
22,CACTTGAC,0.282 ± 0.061
23,CGGTCCAC,-0.0351 ± 0.019
24,AAGAGCCG,-0.148 ± 0.051
25,GGGCACGA,-0.118 ± 0.0048

row,Sequence,PBM E-score of 8-mer
1,GCCCCGGC,-0.339 ± 0.04
2,AGAGACGC,-0.15 ± 0.037
3,CGGTTGAA,-0.126 ± 0.045
4,GCTATGCA,-0.166 ± 0.02
5,ATCGGAGG,-0.192 ± 0.081
6,ACATGCGG,-0.0496 ± 0.0084
7,AGTGGAGG,0.0988 ± 0.056
8,GTACAGGA,-0.256 ± 0.0053
9,ACGCCGTG,0.26 ± 0.004
10,ACTGTAAT,-0.064 ± 0.02
11,ATTCTCAC,0.415 ± 0.015
12,CTAGAGCA,-0.213 ± 0.059
13,ATCTACTC,-0.281 ± 0.021
14,AGATATGG,-0.243 ± 0.0085
15,AAAGCCAA,-0.221 ± 0.037
16,CCTGTAAA,0.0537 ± 0.052
17,CCCTGAAA,-0.103 ± 0.074
18,GATCGGGC,-0.157 ± 0.062
19,ACTTTTAA,-0.178 ± 0.0036
20,CCACGAGC,-0.0192 ± 0.085
21,AGTTTCCC,-0.152 ± 0.024
22,CGCGAAGA,0.371 ± 0.01
